# From PMC7819943, “Rice protein-binding microarrays: a tool to detect cis-acting elements near promoter regions in rice”
# Some of the results follow.
# Target: T1, OsWOX13 (Oryza sativa, UniProt Q5QMM3 1-267)
# T1 sequence: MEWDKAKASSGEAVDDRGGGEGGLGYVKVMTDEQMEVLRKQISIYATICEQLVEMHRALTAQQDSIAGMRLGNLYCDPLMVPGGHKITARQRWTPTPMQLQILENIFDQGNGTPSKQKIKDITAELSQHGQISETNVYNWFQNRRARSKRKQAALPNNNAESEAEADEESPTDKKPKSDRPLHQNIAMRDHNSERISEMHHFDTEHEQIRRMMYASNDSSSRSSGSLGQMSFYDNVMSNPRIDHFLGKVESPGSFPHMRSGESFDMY
# Experiment: protein-binding microarray (RPBM); PBS, 2% BSA, 51.3 ng/ul salmon testes DNA, 50 uM zinc acetate, 200 nM TF, 25 C, 1 h; high values mean tight binding
# Conditions: protein: recombinant; tags: N-terminal polyhistidine and DsRed monomer fusion (pET32a); label: CyDye5-dUTP incorporated in the synthesized complementary strand; 3' TTTTT single-stranded linker to array surface; dsDNA, one strand shown
# Outline: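 The binding signal is fluorescence intensity per feature, in arbitrary units, read on an Axon 4000B scanner. Polyhistidine- and DsRed-tagged transcription factors (N-terminal fusions) from E. coli BL21-CodonPlus were purified on Ni–NTA and applied at 200 nM for 1 h at 25 °C to a double-stranded, BSA-blocked custom Agilent array in buffer with 50 µM zinc acetate.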
row,Sequence,binding signal
1,CACGTCAAATTTGAGTCAATTCATGGTATTTATTTGGTTTCGGAGTCACCTAGTGCAG,4780 fluorescence intensity (a.u.)
2,GAGAAATTAAATCACCTTGAATGTTACAAAATTAAGGAGTCGGAGTCACCTAGTGCAG,10200 fluorescence intensity (a.u.)
3,CATTCAATTTAAGTGTGAGGTATTATATACAGTATAGCATCGGAGTCACCTAGTGCAG,3980 fluorescence intensity (a.u.)
4,CCATGTACTTTGATTACCATGATACGATCATTTGATAATGCGGAGTCACCTAGTGCAG,5770 fluorescence intensity (a.u.)
5,GATATTTAATTATTTACACTCTTTAATTATTCCATATCTTCGGAGTCACCTAGTGCAG,20900 fluorescence intensity (a.u.)
6,ATATAATTTATTTTGAACGATTTGCACAAGACGGTGTGAACGGAGTCACCTAGTGCAG,34400 fluorescence intensity (a.u.)
7,TACATATAATTGAGGGAGCCAACGTGGACTTATTCCTTTTCGGAGTCACCTAGTGCAG,15700 fluorescence intensity (a.u.)
8,TTTGAATGATTTTCTCCAAATTTTGGTCAAATTTACTGTTCGGAGTCACCTAGTGCAG,39400 fluorescence intensity (a.u.)
9,TCTAAATTTATACAGTGTTAGTTGTACTGTTTTCTATAGGCGGAGTCACCTAGTGCAG,23600 fluorescence intensity (a.u.)
10,CTGTAAGATTAATCAGCTTAATTAGCAGCTATAACTAGCTCGGAGTCACCTAGTGCAG,20500 fluorescence intensity (a.u.)
11,CATAATTTTCGTGTTTGTCCAACATGACATCATTTTCTTGCGGAGTCACCTAGTGCAG,16200 fluorescence intensity (a.u.)
12,AGGTATTTTGCCAATCATCTGCATGCAAGTTATGAGGTCTCGGAGTCACCTAGTGCAG,11100 fluorescence intensity (a.u.)
13,ATAAGTACTCGGTTTGTTGATTGGTTCGTGCGCGACAGCACGGAGTCACCTAGTGCAG,14100 fluorescence intensity (a.u.)
14,CCCCTCTGTTCTAATTAGAACCGGCACTAATCAAATCCAACGGAGTCACCTAGTGCAG,8470 fluorescence intensity (a.u.)
15,GTTTAGACAGCTCCACAACTCCACTCCAGACTCAACTCCTCGGAGTCACCTAGTGCAG,4110 fluorescence intensity (a.u.)
16,GCCCTGATTATATAATCTTCCTCGTTAATCACAGTTTCTACGGAGTCACCTAGTGCAG,35400 fluorescence intensity (a.u.)
17,CAATTTAATTTACTCTCTCCTGCATATGCCAAATGCTTCTCGGAGTCACCTAGTGCAG,8430 fluorescence intensity (a.u.)
18,AATAATAATAATAAATTGCCTACCAGCAACACTGCAAGTCCGGAGTCACCTAGTGCAG,5300 fluorescence intensity (a.u.)
19,TCAAAATTATGTTTCAGATTCAAATTTTGGTATCGGTGTACGGAGTCACCTAGTGCAG,15100 fluorescence intensity (a.u.)
20,TAATCCAGTTTAGTTAACTAATTAATTCCCTAAAATGCTACGGAGTCACCTAGTGCAG,21600 fluorescence intensity (a.u.)
21,CGGACAACGTGACTGGCTTCCGTCGAAAACGTTACATTGACGGAGTCACCTAGTGCAG,3480 fluorescence intensity (a.u.)
22,ATGTAATTTGACATGAGGTCAGGTGCTAATGTGTAAAATGCGGAGTCACCTAGTGCAG,26600 fluorescence intensity (a.u.)
23,AATGTTAATTAGTATTGGTAGTATTACAGCTAACTGACAGCGGAGTCACCTAGTGCAG,22300 fluorescence intensity (a.u.)
24,AGGCAAATTATATGTCAGCAAAACTTATTGACCATCTGTCCGGAGTCACCTAGTGCAG,6350 fluorescence intensity (a.u.)
25,AAATGAGATGACAATGATGATGATGATGGTTTCATCACCCCGGAGTCACCTAGTGCAG,4620 fluorescence intensity (a.u.)
26,AATTAATTATGGTATGTGATACTTTTCTCAATACGTAATACGGAGTCACCTAGTGCAG,26400 fluorescence intensity (a.u.)
27,GTACAGTAACTCCTAATTAATGTTCTTGCTTCATCACACTCGGAGTCACCTAGTGCAG,8120 fluorescence intensity (a.u.)

row,Sequence,binding signal
1,CTGTAATTGCACTGGAAATTCGTATAGTGGCACTGGAAAACGGAGTCACCTAGTGCAG,12600 fluorescence intensity (a.u.)
2,GTCATTTAAAACCAATCACATCGCCTCTTGTGCCATTATCCGGAGTCACCTAGTGCAG,6340 fluorescence intensity (a.u.)
3,TAAATAAATTATTCTATCTTGGATATGTTAGATATACATACGGAGTCACCTAGTGCAG,18700 fluorescence intensity (a.u.)
4,AGCGCAACTAATTAAACTAGGCTTATCAGGCGACAGCGGCCGGAGTCACCTAGTGCAG,4920 fluorescence intensity (a.u.)
5,TTTATCTATAACTGCAATTATAAATACTATGGCACATAGTCGGAGTCACCTAGTGCAG,5660 fluorescence intensity (a.u.)
6,AACCAATCACTCGATATATGACTAATTCTTCTGGAGTTGTCGGAGTCACCTAGTGCAG,26500 fluorescence intensity (a.u.)
7,GGCCGGCGGGTGGCCGGGTGGGGAGGAGGTCGGCAGGGCGCGGAGTCACCTAGTGCAG,3810 fluorescence intensity (a.u.)
8,CAAATTTAAATTTGAATCGGGTATGTAAACTTTTGACTTACGGAGTCACCTAGTGCAG,15200 fluorescence intensity (a.u.)
9,GACAAGAGGGTAGTAAATTGATTACTATTTAGTTGTTCTGCGGAGTCACCTAGTGCAG,10100 fluorescence intensity (a.u.)
10,GATTGATTGGATAGAGCTCCTACCAATCCACTTTCTTGTTCGGAGTCACCTAGTGCAG,34400 fluorescence intensity (a.u.)
11,GTTTAATTATTTAATGTTATCTTCAATATTAGACTATGGCCGGAGTCACCTAGTGCAG,43100 fluorescence intensity (a.u.)
12,ACCAAATTAATTTATTAAACATAAAATTGAATATATTTTGCGGAGTCACCTAGTGCAG,46500 fluorescence intensity (a.u.)
13,GATTAATTAATTATTATCCATTGTACACTTCGAAAATTGGCGGAGTCACCTAGTGCAG,60500 fluorescence intensity (a.u.)
14,TTGATAGGAACTTTATTGGAGCTCCACGAATCTCCCAGGCCGGAGTCACCTAGTGCAG,5980 fluorescence intensity (a.u.)
15,CCTAAATTTTGATAGCAGAATCGTATTGTCACTTTACATACGGAGTCACCTAGTGCAG,9530 fluorescence intensity (a.u.)
16,AAACATTAATTTATTCGTCTTCCGTAGACTGCAATAGTCGCGGAGTCACCTAGTGCAG,29400 fluorescence intensity (a.u.)
17,GATATGACTGAAAAGTTATGTGTGTATGACAGGTTGATGTCGGAGTCACCTAGTGCAG,6990 fluorescence intensity (a.u.)
18,AAAATGATTTATCCACCTCACTAGAAATTTCTCTCTTAAACGGAGTCACCTAGTGCAG,7700 fluorescence intensity (a.u.)
19,GTGTAAATTAAATTGTTCCAACTAATTTTATTTACAGATGCGGAGTCACCTAGTGCAG,33700 fluorescence intensity (a.u.)
20,CAGTGATTGATTCGTAACTAATAAATCGAACTACTGCGCGCGGAGTCACCTAGTGCAG,40800 fluorescence intensity (a.u.)
21,GTGCAATTAGTGATATATATCACCAATAACTACTACAAGCCGGAGTCACCTAGTGCAG,12500 fluorescence intensity (a.u.)
22,CTTAACTAAATTTGAGTATATGGTAGTTTCACATTGACATCGGAGTCACCTAGTGCAG,28400 fluorescence intensity (a.u.)
23,CTCCCGTCTCGGCCAATCATAGCGCGCCATTTCCATCCCACGGAGTCACCTAGTGCAG,7140 fluorescence intensity (a.u.)
24,CAATGATTGGTACCGGACCTGATCCCGTCGTAATCAGCGGCGGAGTCACCTAGTGCAG,51800 fluorescence intensity (a.u.)
25,CAGTTCAATCAAACGGTCATTCCCGTGTTTTCCTGCGTTTCGGAGTCACCTAGTGCAG,12900 fluorescence intensity (a.u.)
26,TCAAATTGGTACAACAGCGACCTTCACAGAACTTGGGAAACGGAGTCACCTAGTGCAG,8760 fluorescence intensity (a.u.)
27,ATCAAATTATGCTCATTGGGGAAGGGAGAATCATGGAGATCGGAGTCACCTAGTGCAG,8890 fluorescence intensity (a.u.)
